Consider 83 variants from the RNAGym collection of RNA variant scans (doi:10.1093/nar/gkz1192).

Read counts are not given, so values of variants with three or more changes are uncertain.

First the molecules themselves.
B1: CPEB3 Ribozyme (parent)
chain: UAACAGGGGGCCACAGCAGAAGCGUUCACGUCGCAGCCCCUGUCAGAUUCUGGUGAAUCUGCGAAUUCUGCUGUAUAUCUC

Variants of B1 are the subject of the data set. The data set can be described thus: self-cleavage, relative activity (ratio to wild type); higher = more cleavage; in vitro, sequencing. The gist of the method:
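Relative activity was defined as the cleaved/total read fraction for a variant divided by the same fraction for the unmutated ribozyme. CPEB3 self-cleaving ribozyme libraries were made by rounds of error-prone PCR, barcoded, and transcribed in vitro with T7 RNA polymerase for 5 hours at 37°C, and cleavage ran through transcription plus a 15 min DNase I step before EDTA. Illumina sequencing of template-switched reverse transcripts gave the reads, and DNA sequencing mapped the barcodes. Averages come from three batches, using variants with at least 5 reads.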
On to A21U U31C U41A U51A, for which the self-cleavage turned out to be 0.13.

Turning to C23U C38U A64G A65G U66C U72C, the self-cleavage came out at 0.06. Then A21U U31A A35G, with 0.76; and A21G U43A A56G, with 0.71. The value for U25A U41C U80C was 0.33; that for U25A C59U A77G was 0.14. The value for G22A A28U U49C A57G was 0.07. As to C23U U76C A77U, the self-cleavage is 0.23. Consider G24A A28U U69C, for which the self-cleavage was 0.11. On to G24A U43C A56G A64U, for which the self-cleavage amounted to 0.07. Then A21U A35U U41A A56G, with 0.05; and A21U A28U U78C, with 0.09; and G24U U25C A35U U43C A77G, with 0.2. With A21G U48A U54C, the self-cleavage was determined as 0.08. As to A21U A28G G33A U72A, the self-cleavage was found to be 0.07.

For the variant U25A U41C U60C U69C U74C, the self-cleavage was determined as 0.08. Then G24A U60C U72A, with 0.11; and G24A U31A A56G U72C, with 0.09. The value for G22C U60C U76C was 0.14; that for A21U C37A U51A U78C was 0.18. The value for C23A A35U G36U was 0.13; that for A21G U48C U54A U69C was 0.37; that for C23U A47G U69C U76C was 0.11. Turning to A21U U41C U66A, the self-cleavage worked out at 1.06. Then A21G U48C U67C, with 0.12; and C23A C40U A57G, with 0.13; and G24A U41G U69C U74A, with 0.15. The value for C23U A45G U60A was 0.16; that for G24U U66C C71A was 0.09; that for C23G U66C U69G A77C was 0. Then G24A U26A U66G, with 0.27; and U25A A45C U51A, with 0.22. Regarding C23U U41C U49A, the self-cleavage was found to be 0.19. Turning to U25A U31C U41C U58A A64G, the self-cleavage came to 0.06.

Turning to G22A C38U U41C G63U, the self-cleavage is 0.05. With A21G U67G U72C, the self-cleavage worked out at 0.12. The value for A21G U49C U66G A77G was 0. Consider G22C U48C U72A, for which the self-cleavage came out at 0.07. The value for A21G U48C U51A C79U was 0.32; that for C23G C59A A64G C68A was 0.16. Then C23U U26C U54C U60C U67C U76A A77U, with 0.04. The value for G22A U48C A56G U60G G73A was 0.14. For the variant A21G U66C C68A, the self-cleavage turned out to be 0.3. Then G24U U25C U43C C44U U60C, with 0.22; and A21G U41C U60G, with 0.16. Then A21U U31C A35G, with 0.37; and A21U U49A U58A U60A U67C U78C, with 0.06; and G24C A28U G36C U66C, with 0.17. The value for G24A A56U C59U was 0.16; that for U25A U26A U48C G63U U72A was 0.06.

Take A21G U31C U43C U60A: the self-cleavage was 0.09.

Turning to A21G U41C C68G U80A, the self-cleavage is 0.09. Then A21U U25C G55U U60C U80C, with 0.08; and G22A U25C A35U A47G, with 0.05. The value for G24A A35U U49C was 0.15. Then C23U A45G U49A C62A U74C, with 0.18; and C23G U25C C38G, with 0.08; and G24A A45U U72A A77U U80C, with 0.1. Consider A21G U41C U72A U76C U78C, for which the self-cleavage came to 0.16.

For C23U U41C U67A A77G, the self-cleavage worked out at 0.06. The value for A21U U49C U54A U74C was 0.15; that for A21U U25C A35U A64G A77G was 0.04. Then G22A U25C A56G, with 0.18.

For the variant U25A G33A C39A U54C A64G, the self-cleavage is 0.11.

In the case of A21U U48C U74C C79A U80C, the self-cleavage stood at 0.29. The value for G24A U26C C38A U48C U66C was 0.1; that for A21G U58C G63A was 0.29. As to G24A U54C A56G, the self-cleavage came to 0.09. The value for U25A A35G C38G C62G was 0.29. The value for U25A U26C U43A A56G A57G U58C A64U was 0.06. Then G22C U76A C81A, with 0.2; and U25A U41C G42A A64U A75U, with 0.11; and U25A A35G U58C, with 0.13.

For G24A C38U A75U, the self-cleavage is 0.15.

Take A21U A56U U72A: the self-cleavage turned out to be 0.13. As for G24C G36U A47U U51C, the self-cleavage turned out to be 0.02. Take C23U U43A A56U U74C: the self-cleavage was determined as 0.24. The value for A21G U51C G70U U80C was 0.13; that for G24A U26A U31C was 0.09; that for C23U A57G A65G was 0.23. Then U25A G52A U60C A65U U67A, with 0.06; and C23G U25C U43C U69C, with 0.11. Then C23A U26C U43C, with 0.11.
